Data from the supplement of paper PMC11417369.
± gives the standard deviation of the averaged measurements. This is one part of the list.

tested on: PfAP2-LT AP2 domain (GST-tagged); assay: gcPBM binding intensity (ln(normalized median fluorescence intensity)); higher = stronger DNA binding
Outline: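 An Agilent 4 × 180k array carrying primer-extended double-stranded 36-bp intergenic genomic probes and negative controls received GST-tagged P. falciparum DNA-binding domains expressed in E. coli, about 25 μg on average, for 1 h. The binding buffer contained 1× PBS, 1% milk, 0.2 mg/ml BSA, 0.5% salmon testes DNA and 0.03% Triton X-100. Binding intensity is the top Masliner-normalised natural-log median intensity across replicate spots of either probe orientation, read after Alexa488 anti-GST antibody staining and a 488 nm scan.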

Sequence | gcPBM binding intensity (ln)
TTAACAAATGGACACACACACACACCCAAAAAAAAA [CACACA_site4443] | 9.97 ± 0.042
TTATATTAAACAAACACACACATATATATATATATA [CACACA_site2382] | 9.54 ± 0.49
ATCAATACACATATATGTACATATAATAATTATCTT [XGTACX_site662] | 8.96 ± 0.42
TTATTTTTTCAAGAATGTACTTACGAATTGTCGTAT [XGTACX_site1363] | 8.65 ± 0.4
CAAAAAAACAAACACACACACACACCCATATATATA [CACACA_site3653] | 10.25 ± 0.085
TAATTACCATATGGTACACACATATATATATGTATA [CACACA_site3487] | 9.21 ± 0.43
TTGGCATACAGACACACACACACACGCCCACATATA [CACACA_site6425] | 10.1 ± 0.38
TTTTTTTTTTGTAGTTGTACGAACTAGCTATTTATG [XGTACX_site692] | 8.77 ± 0.48
ATATATATATATATATGTACATATATATATTTTTTA [XGTACX_site5987] | 9.62 ± 0.26
TATATATATATATGTTGTACTTTTAATTTAAATGTA [XGTACX_site4239] | 9.19 ± 0.57
TTTTTTTTTTATTCTACACACATATGTTTTTATATG [CACACA_site182] | 9.07 ± 0.44
TTTTTTTTTAAGCAAAGGAAATCAAAATAAAAATAT [CACACA_negctrl_site719] | 8.19 ± 0.4
TTTTTTTTTTTTTTTTGTACACATAGTAAAAATTAA [XGTACX_site2410] | 8.27 ± 0.35
TGTTATTAAAACGTGACACACAATATATATATATAT [CACACA_site3539] | 9.29 ± 0.15
TTATAAATTATATATATGACCAATAATTGTGAGCAT [CACACA_negctrl_site725] | 8.63 ± 0.35
AATAAATTAATAAGGTGTACATAAATAATTTATATA [XGTACX_site8278] | 8.77 ± 0.54
ATATATTATTATATATGTACTTATTTATAAATGATT [XGTACX_site7597] | 8.58 ± 0.33
AAATAGGGAATTTATGCACACAGTTAAGGGGGAAAA [CACACA_site2071] | 9.28 ± 0.26
TAAATATAAACACAAACACACACATATATATATATA [CACACA_site7978] | 10.04 ± 0.035
ATTCAAAAGGTTTAATGTACGTGATGTTTCACAAAT [XGTACX_site784] | 8.63 ± 0.34
ATTTTTTTTTTTTTTTTTTTTTTTTTCTCTCTCACT [CACACA_negctrl_site1046] | 8.67 ± 0.51
CATACTCTACATAGATGTACTCATTTAAAAAAAAAA [XGTACX_site6945] | 8.29 ± 0.57
AAATATATATATATAATACACACTAAAGTAACATAA [CACACA_site2870] | 9.06 ± 0.4

Sequence | gcPBM binding intensity (ln)
TGTCGACATGTAGGTAGTACTATTAAAAATAATGAT [XGTACX_site3849] | 8.91 ± 0.51
ATAGAAGGACATATAACACACATATATTATAAGTAT [CACACA_site5461] | 9.34 ± 0.43
GGATGATTAAGGGGGACACACGTTTATATATTTATA [CACACA_site4342] | 9.22 ± 0.22
CACGCATACAGACACACACACACACCCATATATATA [CACACA_site636] | 10.2 ± 0.37
TATGATATGTATGGAAGTACGAAGAGGGATGATCAG [XGTACX_site1677] | 8.77 ± 0.52
TTAAAAATAAAACAAAGTACTCAAGTTATTGTCTTT [XGTACX_site1584] | 8.51 ± 0.41
ATTTTCAAATTAAAATGTACAAATGAAAGAAAGGGA [XGTACX_site7048] | 8.74 ± 0.46
TGAAATAAAATTTGTACACACATATATATATATATA [CACACA_site586] | 9.555 ± 0.021
GTGAATCCTAAGTGTACACATCTTACAGATATATAT [CACACA_site4836] | 9.12 ± 0.46
GCACAAATCATCAAATGTACAGAAAATGCTGTCAAT [XGTACX_site5037] | 9.06 ± 0.33
ATATAGGTATAATACACACACTAATATGTAACTGTA [CACACA_site7011] | 9.37 ± 0.49
TTCCTTCATTGGAAAAGTACACAATATTGTCGTTTA [XGTACX_site8057] | 8.86 ± 0.42
CGTAAATTTTTCTAAGTGCATGTTAATTTTTCAATT | 8.62 ± 0.42
TATTTATTATGATACTCATATTATTCTATGATTAAA [GTGCAC_negctrl_site486] | 8.5 ± 0.41
TAAATACCTATATGGCGTACTATTATCATAGTATAT [XGTACX_site5423] | 8.95 ± 0.43
ACATTCTATACATACACACCCACACCCAAAAAAAAA [CACACA_site863] | 9.59 ± 0.042
TATATATCAATATACACACACACATATTTATTTATA [CACACA_site6858] | 9.6 ± 0.22
TTTCTTAAATATATGCGTACTCAAAATTGTTCTACA [XGTACX_site7995] | 8.49 ± 0.5
TAACCACAAAAATAAAATCAAAAAAAAAAAAAAAAA [CACACA_negctrl_site1727] | 8.23 ± 0.54
AAAAATATAATATAATGTACACATAAACAAAAAAAA [XGTACX_site3658] | 8.98 ± 0.52
AACAGACATACATACACACATACATACAGACATACA [CACACA_site1942] | 9.64 ± 0.45
ATATATATATATTTCGCACACATAATCTTATTAAAT [CACACA_site2579] | 9.23 ± 0.24
TAAAATAAAACAAACACACACACACCGACACAAAAA [CACACA_site5993] | 10.1 ± 0.035

Sequence | gcPBM binding intensity (ln)
TATAAACCTACATACACACATACAATAAGTAAAATG [CACACA_site1921] | 9.31 ± 0.33
TACTATGCCCCATATAAACACACAAATAAAAAGAAT [CACACA_site8857] | 9.22 ± 0.38
ATGTATCATAAGAACTGTGTGGTTACAGACACGAAC [GTGCAC_negctrl_site416] | 9.08 ± 0.45
CTATGCATTTATAGTGCATGTAAAATATAAGATAAT [TGCATGCA_site71] | 8.69 ± 0.47
TATAATTAATTAGAAGTGCATTAGGTAACAACTGTC [GTGCAC_site9746] | 8.79 ± 0.38
AACTATATATATAATTCACACATGTTTTAAAATTTT [CACACA_site4971] | 8.76 ± 0.38
AACGCAGTTTAATATACACACCAAAAAAAAAAAAAG [CACACA_site5643] | 8.93 ± 0.43
ATATATTCTTATTGCTGTACACATATTTTCTAAAAA [XGTACX_site4851] | 8.75 ± 0.38
TTTCCTTTTTTAATATGTACACATATTATTATATCT [XGTACX_site3079] | 8.99 ± 0.62
TAAAGAGAAATATGTACATGCGAAAATGCCTTAAAT [TGCATGCA_site1050] | 8.85 ± 0.37
ATATATACTATAATAGTGCATTAAAAAAGTAAAAAT | 8.92 ± 0.51
TTTCTTCGAAATAGAACACTTGTGCAAAATAAGCAA [XGTACX_negctrl_site361] | 8.54 ± 0.42
TGAACAAAAAAAAATTGTACTTTTTTTTTAATATTT [XGTACX_site7172] | 8.2 ± 0.45
AAAAAAAACAATCTCATACACACTAGGGATTAATTA [CACACA_site1776] | 8.74 ± 0.37
ATTTTTTTATAAAATTTTTATATAATTTATTATAAA [GTGCAC_negctrl_site96] | 8.12 ± 0.49
AGACAATAATATAATCGTACAATAAATAAAATAAAA [XGTACX_site5231] | 9.02 ± 0.55
AAATATAATATACAAAGTACTTTTTCATCTTATATA [XGTACX_site8771] | 8.55 ± 0.38
AAAATAATCTTTTGATTGCACTGTTACATTTTTTCT [GTGCAC_site9563] | 8.83 ± 0.49
CTTATGTGCATACCTACACACTTACATATATATATA [CACACA_site8973] | 9.02 ± 0.31
TTAAATGTTGGTTGTAGTACTCCATATGTTGTTTTA [XGTACX_site5312] | 8.91 ± 0.47
TTTGGAATATTAATTGTGCACTTAAAAAGTTAATTA | 8.38 ± 0.39
TATATATATATAAGATGTACCCTTTGAAATAATAAT [XGTACX_site7215] | 8.72 ± 0.41
TGATACTGCAAAAAATATAAAAAAATAATAAAATAA [CACACA_negctrl_site791] | 8.49 ± 0.53

Sequence | gcPBM binding intensity (ln)
AACAAAAGTAATTAAAAACAATACAAACATATGTTT [XGTACX_negctrl_site220] | 8.65 ± 0.49
TGGATAAAATAAAAATGTACTTAACATTTATATTTT [XGTACX_site712] | 8.31 ± 0.52
TTTCTAATTTATATCACACACATATAAATATAGTAA [CACACA_site6210] | 8.72 ± 0.39
AAATAATATAAACATACACACACACCGATATATATA [CACACA_site8945] | 9.92 ± 0.17
ATGTATGAAAAAATGTGTACATAATTTTTTTTTTTT [XGTACX_site5444] | 8.77 ± 0.35
ATCATTCAAAAATGCTGTACTAGGGGAAAACGTGTT [XGTACX_site7168] | 8.81 ± 0.5
ATATATAGGTTCCCTTTTCTTTTTTTTTTTTTTTTT [CACACA_negctrl_site1159] | 8.45 ± 0.46
ATATATATATATATATGTACATATTTTATAACTGTA [XGTACX_site5395] | 9.72 ± 0.35
ATTTATACATATAAACGTACATACATATATAATATT [XGTACX_site2969] | 8.75 ± 0.4
AACATAAAACGTAATATATTACAAATATAAACAATC [CACACA_negctrl_site1675] | 9.16 ± 0.48
TTACCATTTGAAAATTCACACACTTTATTTTGTTAT [CACACA_site3799] | 9.04 ± 0.52
GTAAGCATAAATATATGTACATACATATACAGATAT [XGTACX_site3361] | 9.11 ± 0.42
ATATATATATATATATGTACATAATATATGTCCTAT [XGTACX_site5087] | 9.635 ± 0.0071
TAAGATAAAAAAAATGCATGTTCTTATAATATTGTC [TGCATGCA_site939] | 8.61 ± 0.36
ATTATATCATCTAAAACATGCACACATATGTACTCT [TGCATGCA_site949] | 9.43 ± 0.38
GTTGAGAAAATATGTGCATGTCAGGTTAAATTTTTA [TGCATGCA_site744] | 8.71 ± 0.52
GGTGATATAATATATACATGCACATATATATTATTA [TGCATGCA_site970] | 8.82 ± 0.37
TATGGAAATATATATTGTACGTATGACCTTTAAAAA [XGTACX_site3935] | 8.64 ± 0.43
TTTATATGTATGAAGTGTACACATATATTGTATTTT [XGTACX_site5731] | 8.93 ± 0.45
TTACAAAAAAATAATTGTACATACAATTTCTGTTAT [XGTACX_site877] | 8.71 ± 0.45
